± gives the standard deviation of the averaged measurements. Restriction of a single-cycle SIVsab GFP reporter by TRIM5α v1-loop variants in CRFK cells. Human variants: read share among cells still uninfected after two challenges over input, higher = gained restriction. Rhesus variants: share among infected cells over input, higher = lost restriction. Reporter dose not given per row. No active / inactive call per row; the paper calls a change when both replicates lie above its controls (mean + 2 SD of stop or wild-type variants, or the top frameshift score). Residues outside the varied loop are taken from Swiss-Prot. The paper reads the human single-substitution scores as noise; they and the rhesus combinations repeat poorly (rank correlation 0.3 to 0.4), indel scores repeat only for the top variants, rhesus substitutions well (0.9).
Each sequence was assayed on SIVsab (simian immunodeficiency virus of sabaeus monkeys), single-cycle GFP reporter, in CRFK cells (assay: enrichment among uninfected cells over input (fold); higher = stronger restriction). Settings: library: human / rhesus combinations.
Procedure: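 Pools of CRFK cells expressing variants of the TRIM5α v1 loop were challenged with the single-cycle reporter, sorted by GFP and sequenced; mean of two replicates.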

Row | Sequence | enrichment
1 | MASGILVNVKEEVTCPICLELLTQPLSLDCGHSFCQACLTANHKKSMLDKGESSCPVCRISYQPENIRPNRHVANIVEKLREVKLSPEGQKVDHCARHGEKLLLFCQEDGKVICWLCERSQEHRGHHTFLTEEVAREYQVKLQAALEMLRQKQQEAEELEADIREEKASWKTQIQYDKTNVLADFEQLRDILDWEESNELQNLEKEEEDILKSLTNSETEMVQQTQSLRELISDLEHRLQGSVMELLQGVDGVIKRTENVTLKKPETFPKNQRRVFRAPDLKGMLEVFRELTDVRRYWVDVTVAPNNISCAVISEDKRQVSSPKPQIIYGAPGTRYTFQTLTNFNYCTGILGSQSITSGKHYWEVDVSKKTAWILGVCAGFQPDAMCNIEKNENYQPKYGYWVIGLEEGVKCSAFQDSSFHTPSVPFIVPLSVIICPDRVGVFLDYEACTVSFFNITNHGFLIYKFSHCSFSQPVFPYLNPRKCGVPMTLCSPSS [human TRIM5α, 330-340 = GAPGTRYTFQTLT] | 0.0236 ± 0.033
2 | MASGILVNVKEEVTCPICLELLTQPLSLDCGHSFCQACLTANHKKSMLDKGESSCPVCRISYQPENIRPNRHVANIVEKLREVKLSPEGQKVDHCARHGEKLLLFCQEDGKVICWLCERSQEHRGHHTFLTEEVAREYQVKLQAALEMLRQKQQEAEELEADIREEKASWKTQIQYDKTNVLADFEQLRDILDWEESNELQNLEKEEEDILKSLTNSETEMVQQTQSLRELISDLEHRLQGSVMELLQGVDGVIKRTENVTLKKPETFPKNQRRVFRAPDLKGMLEVFRELTDVRRYWVDVTVAPNNISCAVISEDKRQVSSPKPQIIYGAPGTLYPSFTNFNYCTGILGSQSITSGKHYWEVDVSKKTAWILGVCAGFQPDAMCNIEKNENYQPKYGYWVIGLEEGVKCSAFQDSSFHTPSVPFIVPLSVIICPDRVGVFLDYEACTVSFFNITNHGFLIYKFSHCSFSQPVFPYLNPRKCGVPMTLCSPSS [human TRIM5α, 330-340 = GAPGTLYPSFT] | 0.00614 ± 0.00012
3 | MASGILVNVKEEVTCPICLELLTQPLSLDCGHSFCQACLTANHKKSMLDKGESSCPVCRISYQPENIRPNRHVANIVEKLREVKLSPEGQKVDHCARHGEKLLLFCQEDGKVICWLCERSQEHRGHHTFLTEEVAREYQVKLQAALEMLRQKQQEAEELEADIREEKASWKTQIQYDKTNVLADFEQLRDILDWEESNELQNLEKEEEDILKSLTNSETEMVQQTQSLRELISDLEHRLQGSVMELLQGVDGVIKRTENVTLKKPETFPKNQRRVFRAPDLKGMLEVFRELTDVRRYWVDVTVAPNNISCAVISEDKRQVSSPKPQIIYGAPGTRFPSFTNFNYCTGILGSQSITSGKHYWEVDVSKKTAWILGVCAGFQPDAMCNIEKNENYQPKYGYWVIGLEEGVKCSAFQDSSFHTPSVPFIVPLSVIICPDRVGVFLDYEACTVSFFNITNHGFLIYKFSHCSFSQPVFPYLNPRKCGVPMTLCSPSS [human TRIM5α, 330-340 = GAPGTRFPSFT] | 0.00125 ± 5.5e-05
4 | MASGILVNVKEEVTCPICLELLTQPLSLDCGHSFCQACLTANHKKSMLDKGESSCPVCRISYQPENIRPNRHVANIVEKLREVKLSPEGQKVDHCARHGEKLLLFCQEDGKVICWLCERSQEHRGHHTFLTEEVAREYQVKLQAALEMLRQKQQEAEELEADIREEKASWKTQIQYDKTNVLADFEQLRDILDWEESNELQNLEKEEEDILKSLTNSETEMVQQTQSLRELISDLEHRLQGSVMELLQGVDGVIKRTENVTLKKPETFPKNQRRVFRAPDLKGMLEVFRELTDVRRYWVDVTVAPNNISCAVISEDKRQVSSPKPQIIYQAPGTLFTFPTLVNFNYCTGILGSQSITSGKHYWEVDVSKKTAWILGVCAGFQPDAMCNIEKNENYQPKYGYWVIGLEEGVKCSAFQDSSFHTPSVPFIVPLSVIICPDRVGVFLDYEACTVSFFNITNHGFLIYKFSHCSFSQPVFPYLNPRKCGVPMTLCSPSS [human TRIM5α, 330-340 = QAPGTLFTFPTLV] | 11 ± 0.15
5 | MASGILVNVKEEVTCPICLELLTQPLSLDCGHSFCQACLTANHKKSMLDKGESSCPVCRISYQPENIRPNRHVANIVEKLREVKLSPEGQKVDHCARHGEKLLLFCQEDGKVICWLCERSQEHRGHHTFLTEEVAREYQVKLQAALEMLRQKQQEAEELEADIREEKASWKTQIQYDKTNVLADFEQLRDILDWEESNELQNLEKEEEDILKSLTNSETEMVQQTQSLRELISDLEHRLQGSVMELLQGVDGVIKRTENVTLKKPETFPKNQRRVFRAPDLKGMLEVFRELTDVRRYWVDVTVAPNNISCAVISEDKRQVSSPKPQIIYQARGTLYTFQTLVNFNYCTGILGSQSITSGKHYWEVDVSKKTAWILGVCAGFQPDAMCNIEKNENYQPKYGYWVIGLEEGVKCSAFQDSSFHTPSVPFIVPLSVIICPDRVGVFLDYEACTVSFFNITNHGFLIYKFSHCSFSQPVFPYLNPRKCGVPMTLCSPSS [human TRIM5α, 330-340 = QARGTLYTFQTLV] | 0.0292 ± 0.0089
6 | MASGILVNVKEEVTCPICLELLTQPLSLDCGHSFCQACLTANHKKSMLDKGESSCPVCRISYQPENIRPNRHVANIVEKLREVKLSPEGQKVDHCARHGEKLLLFCQEDGKVICWLCERSQEHRGHHTFLTEEVAREYQVKLQAALEMLRQKQQEAEELEADIREEKASWKTQIQYDKTNVLADFEQLRDILDWEESNELQNLEKEEEDILKSLTNSETEMVQQTQSLRELISDLEHRLQGSVMELLQGVDGVIKRTENVTLKKPETFPKNQRRVFRAPDLKGMLEVFRELTDVRRYWVDVTVAPNNISCAVISEDKRQVSSPKPQIIYGAPGTLFPSFTNFNYCTGILGSQSITSGKHYWEVDVSKKTAWILGVCAGFQPDAMCNIEKNENYQPKYGYWVIGLEEGVKCSAFQDSSFHTPSVPFIVPLSVIICPDRVGVFLDYEACTVSFFNITNHGFLIYKFSHCSFSQPVFPYLNPRKCGVPMTLCSPSS [human TRIM5α, 330-340 = GAPGTLFPSFT] | 1.17 ± 1.7

Same assay, conditions: library: insertions and deletions

Row | Sequence | enrichment
7 | MASGILVNVKEEVTCPICLELLTQPLSLDCGHSFCQACLTANHKKSMLDKGESSCPVCRISYQPENIRPNRHVANIVEKLREVKLSPEGQKVDHCARHGEKLLLFCQEDGKVICWLCERSQEHRGHHTFLTEEVAREYQVKLQAALEMLRQKQQEAEELEADIREEKASWKTQIQYDKTNVLADFEQLRDILDWEESNELQNLEKEEEDILKSLTNSETEMVQQTQSLRELISDLEHRLQGSVMELLQGVDGVIKRTENVTLKKPETFPKNQRRVFRAPDLKGMLEVFRELTDVRRYWVDVTVAPNNISCAVISEDKRQVSSPKPQIIYGARGTRYQTFVNFNYCTGILGYCTGILGSQSITSGKHYWEVDVSKKTAWILGVCAGFQPDAMCNIEKNENYQPKYGYWVIGLEEGVKCSAFQDSSFHTPSVPFIVPLSVIICPDRVGVFLDYEACTVSFFNITNHGFLIYKFSHCSFSQPVFPYLNPRKCGVPMTLCSPSS [human TRIM5α, 7-codon duplication at 344] | 0.134 ± 0.049
8 | MASGILVNVKEEVTCPICLELLTQPLSLDCGHSFCQACLTANHKKSMLDKGESSCPVCRISYQPENIRPNRHVANIVEKLREVKLSPEGQKVDHCARHGEKLLLFCQEDGKVICWLCERSQEHRGHHTFLTEEVAREYQVKLQAALEMLRQKQQEAEELEADIREEKASWKTQIQYDKTNVLADFEQLRDILDWEESNELQNLEKEEEDILKSLTNSETEMVQQTQSLRELISDLEHRLQGSVMELLQGVDGVIKRTENVTLKKPETFPKNQRRVFRAPDLKGMLEVFRELTDVRRYWVDVTVAPNNISCAVISEDKRQVSSPKPQIIYGARGTRYQTFVNFNYCTGILNFNYCTGILGSQSITSGKHYWEVDVSKKTAWILGVCAGFQPDAMCNIEKNENYQPKYGYWVIGLEEGVKCSAFQDSSFHTPSVPFIVPLSVIICPDRVGVFLDYEACTVSFFNITNHGFLIYKFSHCSFSQPVFPYLNPRKCGVPMTLCSPSS [human TRIM5α, 9-codon duplication at 341] | 0.588 ± 0.73
9 | MASGILVNVKEEVTCPICLELLTQPLSLDCGHSFCQACLTANHKKSMLDKGESSCPVCRISYQPENIRPNRHVANIVEKLREVKLSPEGQKVDHCARHGEKLLLFCQEDGKVICWLCERSQEHRGHHTFLTEEVAREYQVKLQAALEMLRQKQQEAEELEADIREEKASWKTQIQYDKTNVLADFEQLRDILDWEESNELQNLEKEEEDILKSLTNSETEMVQQTQSLRELISDLEHRLQGSVMELLQGVDGVIKRTENVTLKKPETFPKNQRRVFRAPDLKGMLEVFRELTDVRRYWVDVTVAPNNISCAVISEDKRQVSSPKPQIIYGARGTRYQTFVGILGSQSITSGKHYWEVDVSKKTAWILGVCAGFQPDAMCNIEKNENYQPKYGYWVIGLEEGVKCSAFQDSSFHTPSVPFIVPLSVIICPDRVGVFLDYEACTVSFFNITNHGFLIYKFSHCSFSQPVFPYLNPRKCGVPMTLCSPSS [human TRIM5α, 6-codon deletion at 341] | 0.808 ± 0.3
10 | MASGILVNVKEEVTCPICLELLTQPLSLDCGHSFCQACLTANHKKSMLDKGESSCPVCRISYQPENIRPNRHVANIVEKLREVKLSPEGQKVDHCARHGEKLLLFCQEDGKVICWLCERSQEHRGHHTFLTEEVAREYQVKLQAALEMLRQKQQEAEELEADIREEKASWKTQIQYDKTNVLADFEQLRDILDWEESNELQNLEKEEEDILKSLTNSETEMVQQTQSLRELISDLEHRLQGSVMELLQGVDGVIKRTENVTLKKPETFPKNQRRVFRAPDLKGMLEVFRELTDVRRYWVDVTVAPNNISCAVISEDKRQVSSPKPQIIYGARGTRYQTFVQTFVNFNYCTGILGSQSITSGKHYWEVDVSKKTAWILGVCAGFQPDAMCNIEKNENYQPKYGYWVIGLEEGVKCSAFQDSSFHTPSVPFIVPLSVIICPDRVGVFLDYEACTVSFFNITNHGFLIYKFSHCSFSQPVFPYLNPRKCGVPMTLCSPSS [human TRIM5α, 4-codon duplication at 337] | 2.36 ± 3.3
11 | MASGILVNVKEEVTCPICLELLTQPLSLDCGHSFCQACLTANHKKSMLDKGESSCPVCRISYQPENIRPNRHVANIVEKLREVKLSPEGQKVDHCARHGEKLLLFCQEDGKVICWLCERSQEHRGHHTFLTEEVAREYQVKLQAALEMLRQKQQEAEELEADIREEKASWKTQIQYDKTNVLADFEQLRDILDWEESNELQNLEKEEEDILKSLTNSETEMVQQTQSLRELISDLEHRLQGSVMELLQGVDGVIKRTENVTLKKPETFPKNQRRVFRAPDLKGMLEVFRELTDVRRYWVDVTVAPNNISCAVISEDKRQVSSPKPQIIYGARGTRYQTFNYCTGILGSQSITSGKHYWEVDVSKKTAWILGVCAGFQPDAMCNIEKNENYQPKYGYWVIGLEEGVKCSAFQDSSFHTPSVPFIVPLSVIICPDRVGVFLDYEACTVSFFNITNHGFLIYKFSHCSFSQPVFPYLNPRKCGVPMTLCSPSS [human TRIM5α, 3-codon deletion at 339] | 1.23 ± 0.4
12 | MASGILVNVKEEVTCPICLELLTQPLSLDCGHSFCQACLTANHKKSMLDKGESSCPVCRISYQPENIRPNRHVANIVEKLREVKLSPEGQKVDHCARHGEKLLLFCQEDGKVICWLCERSQEHRGHHTFLTEEVAREYQVKLQAALEMLRQKQQEAEELEADIREEKASWKTQIQYDKTNVLADFEQLRDILDWEESNELQNLEKEEEDILKSLTNSETEMVQQTQSLRELISDLEHRLQGSVMELLQGVDGVIKRTENVTLKKPETFPKNQRRVFRAPDLKGMLEVFRELTDVRRYWVDVTVAPNNISCAVISEDKRQVSSPKPQIIYGARGTRYQTFRYQTFVNFNYCTGILGSQSITSGKHYWEVDVSKKTAWILGVCAGFQPDAMCNIEKNENYQPKYGYWVIGLEEGVKCSAFQDSSFHTPSVPFIVPLSVIICPDRVGVFLDYEACTVSFFNITNHGFLIYKFSHCSFSQPVFPYLNPRKCGVPMTLCSPSS [human TRIM5α, 5-codon duplication at 335] | 0.737 ± 0.16

From the supplement of paper PMC12230231
